B1: CPEB3 Ribozyme (parent)
chain: UAACAGGGGGCCACAGCAGAAGCGUUCACGUCGCAGCCCCUGUCAGAUUCUGGUGAAUCUGCGAAUUCUGCUGUAUAUCUC

The source gives no read counts; variants with many changes may rest on few reads.

The variants in this data set derive from B1. The data set is described as follows: self-cleavage, relative activity (ratio to wild type); higher = more cleavage; in vitro, sequencing. The procedure, abridged:
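For each CPEB3 ribozyme variant, relative activity is its cleaved/total read fraction divided by the unmutated ribozyme's. Barcoded error-prone PCR libraries were transcribed by T7 RNA polymerase (5 hours, 37°C) and held in DNase I for 15 min before an EDTA stop, with cleavage occurring throughout. Template-switching reverse transcription and Illumina sequencing were used to read the RNAs. A 5-read minimum applied, and results are the mean of three batches.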
As for A21U U25G G46U C79U, the self-cleavage was determined as 0.19.
Under C23U U26C A45G stands 0.04.
For the variant G22U U48C U69A, the self-cleavage came to 0.06.
Next, A21U U25C A28G U60C: 0.08; A21U G22C U49C: 0.23; C23G G30A U31A U80C: 0.14.
For A21U U25C U54C, the self-cleavage came out at 0.16.
As to C23U U26C A47G U69A U78C, the self-cleavage came out at 0.04.
Take C23G U54A A57U U66A: the self-cleavage amounted to 0.19.
As for G22U U54C G55A, the self-cleavage was 0.15.
Under C23G U31A A56G stands 0.15; under G22C U48C U78A, 0.13; under A21U U41C U51C U67G, 0.15.
Next, G22A U25A U31G U41A U60A: 0.1; C23U U25C A45U: 0.19.
As to C23U U51A U80C, the self-cleavage was 0.36.
Consider A21U U43G A64G U76C, for which the self-cleavage is 0.07.
Regarding C23U U49A A65G, the self-cleavage was found to be 0.25.
Turning to G22U U31C C50U, the self-cleavage worked out at 0.13.
Next, C23G A28G U48C U54C U60A: 0.07; G22A C40U U72C: 0.21; C23U A35G U41A G73A: 0.24.
Under C23U U25C U48C stands 0.32.
Next, A21U U26A U51C U74C U78C: 0.5.
Consider C23A U31A A47G U74C, for which the self-cleavage amounted to 0.12.
Next, C23U U43C U60C U66C: 0.15; C23U U25C A77G: 0.16.
Under C23U C29A U43C A64G U66C U69A G73A stands 0; under C23U A28U A65G, 0.13; under C23A U60A U78A, 0.08.
Take G22U U41A U72C: the self-cleavage stood at 0.17.
Turning to G22A U31C U54A U60C, the self-cleavage came to 0.19.
In the case of C23U U43C C68A A77U, the self-cleavage was 0.05.
Consider C23G U41C U49C U66A U76C, for which the self-cleavage worked out at 0.06.
Next, G22C U25A G30C U31C U67C U76A U78A: 0.05; G24A A28G U41G U49A U54C U78C: 0.07; G22A U43G A57G C62G A77G: 0.16.
Next, C23U U54A A65C: 0.19; C23U A28G A45U: 0.09; C23A A28U C38A U69G: 0.1.
Under C23U U41C U72C stands 0.37; under C23U C32U U41C U60C U72C, 0.11; under G24A A28G A64G U72C, 0.33.
C23A A57G U66C: the self-cleavage is 0.13.
Next, G22A U43A A45U A47G A56G U60A: 0.05; C23A U31C U80C: 0.23.
Under A21U U26C U54A stands 0.26; under G22C C39U A64U, 0.14.
As to G22C U41A U54G, the self-cleavage came out at 0.12.
In the case of C23A U26A U69A, the self-cleavage is 0.07.
Under C23G C32A C40A U49A stands 0.18; under C23A A47G U72A, 0.12.
Next, G22U U26A A35G A56U: 0.07; G22U A28G U49C U54C U60A A64G: 0.05; C23A C27A U49C: 0.32.
Under C23A U31C U41A U48C stands 0.11; under A21U U41A A57U U74C, 0.3.
With C23A A28G A45U, the self-cleavage was 0.14.
C23U U43G A47G G61A U67C: the self-cleavage was found to be 0.09.
Next, C23G A28G U31C U51G U74A: 0.99; G22A U41A A56G U58C U69C U72C U78C: 0.07.
Under A21U U58C U80A stands 0.26.
Next, A21U U72C U76C: 0.47.
For the variant A21U U49C U69C, the self-cleavage turned out to be 0.05.
Next, C23G U41C A45G: 0.43; G22A A35U A64G U76G: 0.01; G22A C23U U78C: 0.09.
Under C23U U58C A64G stands 0.36; under G22A A35G U43C, 0.47; under A21U U25A U54C G63A A64C, 0.22.
Under C23U A64U U67C U80A stands 0.08.
As to G22U U54C U60C, the self-cleavage was determined as 0.06.
Take C23A A47U U76A: the self-cleavage is 0.23.
With C23U A45U G61A, the self-cleavage amounted to 0.18.
G24A A28G A45G U69A: the self-cleavage amounted to 0.12.
Next, A21U U25C U31C A45G: 0.18.
Under C23A U51A U76C A77G stands 0.05.
Under C23A C44U U60A U72C stands 0.16; under A21U U25G U31A U41A A47U U74A, 0.08.
With G22A U25C C68G, the self-cleavage turned out to be 0.14.
Next, C23U U41A A56U A65G: 0.09; C23U A28G U67A: 0.16; G22A A47G U48C U49C U69A: 0.16.
Next, A21U G24A A56G A64G U66A: 0.12; C23G C32G C40A: 0.22; G22A A35G A56G: 0.75.
As for A21U U26C C59G U60C U66G U69A, the self-cleavage is 0.14.
Under G22A U54C U76G A77G stands 0.09; under A21U U25C A28G C37U U41C U49C A64G, 0.05.
Under A21U U31A C68A stands 0.07; under C23U U26A C38U, 0.18.
With C23U U48C A57G U67A, the self-cleavage was 0.07.
In the case of G22U U26C A45U U54C A56G U69A U76C, the self-cleavage was determined as 0.14.
Under C23A U26A U54C stands 0.2; under G24A A28G U43C U54G, 0.21; under C23A U41C A47G U74C, 0.16.
Next, A21U C50U U60C U80C: 0.08; G22A A56G A57G U60C U69C U72C U80A: 0; C23G U48C U51C U54C: 0.07.
Turning to C23A U31C U58A U69C U72A, the self-cleavage was found to be 0.07.
Under A21U G30A U54C stands 0.
Next, G22A A47G A56U: 0.21; C23A G42C U72A U74C U80A: 0.07.
Consider C23G U31A U80C, for which the self-cleavage came out at 0.1.
As for C23U U25A U58A, the self-cleavage was found to be 0.11.
With C23U U49C U66C A75U, the self-cleavage turned out to be 0.08.
Take A21U U51A U72C: the self-cleavage turned out to be 0.51.
With G24A A28G U41G A56G, the self-cleavage amounted to 0.07.
Under C23U A35C U43A A45U A57G U58A U60C stands 0.06; under C23U C44U A57G G70A, 0.06.
Under C23A A65G U67A A75G U80C stands 0.04.
Under A21U U43A U72A stands 0.4.
In the case of C23G A28U C50U U54A U60A U78C, the self-cleavage came out at 0.14.
Under C23U U25C U49A stands 0.23; under G22C U41C U51A A56G U72A U78C, 0.06; under A21U G22U U25C U41A, 0.17.
For A21U U25C A65U, the self-cleavage was 0.27.
Next, A21U U25C U72A: 0.09.
For the variant G22U U26C A35G A45U U49C, the self-cleavage is 0.13.
Next, A21U U25C G30C U41C A75U: 0.13; C23U U51C G55A U72A A75U: 0.06; C23U A47G A57G U72A U80A: 0.18.
Next, C23U U26C G46A: 0.15; C23U G52U U54C: 0.53; C23U U48C U49C U58A U76C: 0.07.
Under G22A A35U C40U U74A U80C stands 0.13.
For the variant A21U U43C A47G, the self-cleavage worked out at 0.11.
Next, C23U U25C U78C: 0.12; A21U U41A C50U U80C: 0.13; C23A C40U A47U U72C: 0.08.
Consider C23U A28G A35C A47G, for which the self-cleavage amounted to 0.07.
For G22A A47G A65G, the self-cleavage was determined as 0.23.
For the variant G22A U31A A45G A56U G61A U69C, the self-cleavage is 0.08.
Next, A21U U69G A77G: 0.21; C23U G36A A65U: 0.09; C23A U54A U58C A65C: 0.09.
Next, A21U G36A A47G A65G: 0.07; G22U U26C C32U U41C U51A U69C U72A: 0.07.
For G22C U25A U49C A77G, the self-cleavage worked out at 0.07.
Under C23A U31C G36C C40A A56G U60C stands 0.06; under A21U U25C A56U U78C, 0.04.
Under C23G U31C C40G U69C stands 0.05.
Consider C23U A64U U69A, for which the self-cleavage worked out at 0.07.
Next, C23U A47G U76A: 0.11; G22A U43C U72A: 0.14; C23A C40A G63C: 0.07.
As for G22C U78A U80C, the self-cleavage stood at 0.19.
In the case of G22A U31C A35G U49C U60C, the self-cleavage worked out at 0.07.
With G22C U49A U58C, the self-cleavage was 0.14.
Under C23G U25C C39U A57G U66G G73A A75G stands 0.24; under C23G C59A A64G C68G A77C, 0.09; under C23U A35U A57G U66C C81U, 0.08.
As for G22A G36A U58A A64G A77G, the self-cleavage is 0.04.
As to C23G U26A A28G A47G U51C, the self-cleavage was 0.05.
Next, A21U U41C U51C C62U U67G: 0.15.
As to C23U U26C U60C, the self-cleavage was 0.14.
As for A21U U26C U41C U48C A56U, the self-cleavage turned out to be 0.25.
Under G22A G42U A45U U49A U51G U60C U74A stands 0.07; under C23A G24A C59A U78C, 0.05.
With G22A U49C U69A, the self-cleavage stood at 0.28.
Under G22U U25C A28U U66C stands 0.12; under C23U A45U U74A A77U, 0.33.
As to A21U U51C U69C U78C, the self-cleavage turned out to be 0.24.
Regarding C23U A57G C62U, the self-cleavage was determined as 0.1.
Consider C23G U60A U72C U78C U80A, for which the self-cleavage was found to be 0.05.
Under C23U A65G U78C stands 0.4; under C23A U43C U48C A56G A57U, 0.12.

The values are drawn from the RNAGym collection of RNA variant scans (doi:10.1093/nar/gkz1192).
